Here are results for one molecule from patent US20170119790A1, “Agents, Uses and Methods” (CYTOGUIDE A/S, priority 2009, published 2017).

Experiment [1] addresses T1, CD163 (Homo sapiens, UniProt Q86VB7). Put plainly: Surface plasmon resonance (Biacore) analysis of mAb binding to immobilized CD163. The note with it: KN2/NRY compared with Mac2-158, 5 μg/ml, FIG. 19. The method, then:
SPR analysis of the binding of mAbs to CD163 was carried out on a Biacore 2000 instrument (Biacore, Uppsala, Sweden). The Biacore sensor chips (type CM5) were activated with a 1:1 mixture of 0.2 M N-ethyl-N′-(3-dimethylaminopropyl) carbodiimide and 0.05 M N-hydroxysuccimide in water. Purified recombinant CD163 were immobilized in 10 mM sodium acetate, pH 4.0, and the remaining binding sites were blocked with 1 M ethanolamine, pH 8.5. The SPR signal generated from immobilized recombinant CD163 proteins corresponded to 40-70 fmol of protein/mm^2. Sensorgrams were generated using mAb concentrations ranging from 5-100 nM. The flow cells were regenerated with 1.6 M glycine-HCl, pH 3. The running buffer used for the experiment was either CaHBS 10 mM Hepes, 150 mM NaCl, 3.0 mM CaCl2, 1.0 mM EGTA, and 0.005% Tween 20, […], and 0.005% Tween 20, pH 7.4, mAb samples were dissolved in the same buffer as the running buffer used. All binding data were analyzed using the Biamolecular Interaction Analysis evaluation program version 3.1.
SPR analysis of the binding of mAbs to CD163 was carried out on a Biacore 2000 instrument (Biacore, Uppsala, Sweden). […] All binding data were analyzed using the Biamolecular Interaction Analysis evaluation program version 3.1.

The target of experiment [2] is T1, CD163. Nature of the experiment: ELISA antibody reactivity comparison of humanised variants. The format is binding. The note with it: supernatant of transiently transfected CHO-S cells. As to the method:
A nunc maxisorp plate was coated with the following (50 μl/well) over night at 4° C.: 4 μg/ml goat anti-human kappa chain antibody (AbD Serotec, Oxford, UK) and ˜4 μg/ml human CD163 (purified as described in 8). Buffer was carbonate buffer, pH 9.0. Each measurement was made in duplicate.
2) The plate was blocked with PBS containing 3% BSA for 1 h.
4) After blocking, the primary antibody was added (100 μl per well).
Undiluted supernatant from transfected cells added to the wells (100 μl/well)
2 fold dilution series were made on all samples and standards. Dilution in PBS containing 1% BSA.
6) Addition of secondary antibody (100 μl/well) • For anti-kappa/anti-gamma ELISA • 100 μl/well of goat anti human IgG gamma chain specific HRP 1:6000 in PBS containing 1% BSA. • For CD163 ELISA • 100 μl/well of goat anti human IgG (H&L) HRP 1:6000 in PBS containing 1% BSA. • For Mac2-158 goat anti-mouse HRP 1:2000 in PBS containing 1% BSA is added to the wells
8) The ELISA was developed by adding 75 μl of TMB substrate to each well. Incubation was performed for 3 min.
10) The plate was read in an ELISA reader at 450 nm.
In general terms: ELISA stands for enzyme-linked immunosorbent assay.

For experiment [3], the target named is T2, CD14 positive monocytes (CD163) (Homo sapiens, UniProt Q86VB7).
T2 construct: Freshly drawn peripheral whole blood samples or PBMC; endogenous in cells; host or cells: human peripheral blood monocytes, blood dendritic cells, monocyte-derived macrophages (healthy donors, buffy coats)
Put plainly: Flow cytometric binding of KN2/NRY to human monocytes. The class given is cell-based. The note with it: mononuclear cells isolated from buffycoat. The method, then:
Outdated buffy coats were obtained from the blood bank at Skejby University Hospital. MNC were isolated with Accuspin System Histopaque®—1077 (Sigma-Aldrich Denmark A/S, Broendby, Denmark) according to the manufacturer's instructions and cultured in RMPI 1640, 10% fetal calf serum (FCS), penicillin/streptomycin (pen/strep) in Tissue culture flasks at 37° C. and 5% CO2. MNC were detached from the flasks by flushing.
The cell suspensions were washed in PBS pH 7.4 (0.1% NaN3) and the cell density adjusted to 3-5×10^6/ml. The cells were incubated at 0.3-0.5×10^6/ml with primary mAb (0.1-0.5 μg) in 100 μl PBS pH 7.4 (0.1% NaN3 and 2% FBS) for one hour at 4° C. Subsequently, the cells were washed in PBS (0.1% NaN3) and incubated with secondary Ab (anti-mouse IgG-FITC or anti-human IgG-FITC (both AbD-Serotec Dusseldorf, Germany)) for 30 min at 4° C. The stained cells were washed twice in PBS pH 7.4 (0.1% NaN3 and 2% FBS) by centrifugation at 1200 rpm for 5 min, 4° C. before analysis on a FACSCalibur (BD Biosciences, New Jersey, USA). The data were further analyzed using the FlowJo7 software package (Tri Star, Origon, USA).

T2 sequence (Q86VB7 42-1156): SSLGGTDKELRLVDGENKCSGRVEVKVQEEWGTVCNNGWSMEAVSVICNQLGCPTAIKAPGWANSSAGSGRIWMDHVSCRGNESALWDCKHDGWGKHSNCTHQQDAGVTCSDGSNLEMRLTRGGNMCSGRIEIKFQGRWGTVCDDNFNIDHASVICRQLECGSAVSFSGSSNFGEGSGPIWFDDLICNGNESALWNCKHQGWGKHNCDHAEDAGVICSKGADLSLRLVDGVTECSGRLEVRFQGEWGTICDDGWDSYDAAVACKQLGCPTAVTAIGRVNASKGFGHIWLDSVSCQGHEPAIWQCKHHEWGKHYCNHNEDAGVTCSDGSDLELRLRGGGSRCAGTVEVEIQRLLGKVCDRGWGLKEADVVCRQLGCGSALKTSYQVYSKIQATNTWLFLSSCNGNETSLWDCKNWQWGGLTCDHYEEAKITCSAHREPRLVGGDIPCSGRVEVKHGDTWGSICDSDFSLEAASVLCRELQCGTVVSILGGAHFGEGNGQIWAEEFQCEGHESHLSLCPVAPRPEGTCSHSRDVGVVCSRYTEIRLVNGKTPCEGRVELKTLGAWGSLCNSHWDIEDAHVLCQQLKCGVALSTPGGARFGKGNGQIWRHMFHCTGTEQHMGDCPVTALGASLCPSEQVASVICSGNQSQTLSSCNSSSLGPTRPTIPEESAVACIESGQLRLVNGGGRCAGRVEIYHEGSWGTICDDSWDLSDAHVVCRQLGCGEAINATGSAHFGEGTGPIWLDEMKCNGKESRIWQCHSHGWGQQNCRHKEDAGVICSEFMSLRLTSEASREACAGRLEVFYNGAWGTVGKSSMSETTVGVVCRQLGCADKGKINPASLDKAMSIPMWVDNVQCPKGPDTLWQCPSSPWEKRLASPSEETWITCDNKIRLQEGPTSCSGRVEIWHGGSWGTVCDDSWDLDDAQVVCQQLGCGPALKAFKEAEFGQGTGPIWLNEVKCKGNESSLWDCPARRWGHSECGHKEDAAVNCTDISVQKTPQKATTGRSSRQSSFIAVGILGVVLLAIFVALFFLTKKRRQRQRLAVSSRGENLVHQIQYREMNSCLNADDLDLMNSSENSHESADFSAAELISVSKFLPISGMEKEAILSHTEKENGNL
T1 sequence (Q86VB7 42-1156): as above

B1: KN2/NRY: humanized IgG4 anti-CD163 antibody, heavy chain KN2 paired with light chain NRY (antibody)
heavy: QVQLQESGPGLVKPSETLSLTCTVSGYSITSDYAWNWIRQFPGNKLEWMGYITYSGSTYYNPSLKSRVTISVDTSKNQFSLKLSSVTAADTATYYCVSGTYYFDYWGQGTTLTVSSASTKGPSVFPLAPCSRSTSESTAALGCLVKDYFPEPVTVSWNSGALTSGVHTFPAVLQSSGLYSLSSVVTVPSSSLGTKTYTCNVDHKPSNTKVDKRV[left out - human IgG4 Fc]
light: DIVMTQSPSSLSASVGDRVTITCRASQSVSSDVAWFQQKPGKSPKPLIYYASNRYSGVPSRFSGSGSGTDFTLTISSLQAEDFAVYFCGQDYTSPRTFGGGTKLEIKRTVAAPSVFIFPPSDEQLKSGTASVVCLLNNFYPREAKVQWKVDNALQSGNSQESVTEQDSKDSTYSLSSTLTLSKADYEKHKVYACEVTHQGLSSPVTKSFNRGEC
For B1, the “affinity for human CD163 immobilized on a Biacore chip” value in experiment [1] is given as “Virtually similar affinities”. In addition, the “reactivity towards CD163 in ELISA” value in experiment [2] is recorded as “comparable reactivity”. Further, the “peripheral monocytes showing co-binding of KN2/NRY and Mac2-158” value in experiment [3] was about 70%.
